Measured values published in PubChem BioAssay AID588579 (National Center for Advancing Translational Sciences (NCATS), 2011).
The whole screen tested about 400,000 compounds, of which about 2,200 (0.55%) were called active. The shares of active, inactive and inconclusive entries below differ from those in the screen. The call rests on the fitted dose curve; in most records, active means well fitted inhibition curve with a large enough effect; inconclusive means small, poorly fitted or top-dose-only effect, or another doubt; inactive means no such curve, though single readings can be large or run the other way. Potencies of inconclusive entries are doubtful fits and often do not repeat.
On the % scale 0 is the no-effect control and ±100 the full control effect; potency means the concentration at half of the fitted maximal effect; tags describe the fitted curve by direction and shape.

The molecules below were run against DNA polymerase kappa (Homo sapiens) (UniProt Q9UBT6) (assay: qHTS for Inhibitors of Polymerase Kappa). Settings: purified Pol kappa, fluorescent DNA synthesis assay, 10 min; series mostly up to 107 µM; activity, negative = inhibition: at the top concentration.
Chain of UniProt Q9UBT6 (Q9UBT6 whole entry, looked up): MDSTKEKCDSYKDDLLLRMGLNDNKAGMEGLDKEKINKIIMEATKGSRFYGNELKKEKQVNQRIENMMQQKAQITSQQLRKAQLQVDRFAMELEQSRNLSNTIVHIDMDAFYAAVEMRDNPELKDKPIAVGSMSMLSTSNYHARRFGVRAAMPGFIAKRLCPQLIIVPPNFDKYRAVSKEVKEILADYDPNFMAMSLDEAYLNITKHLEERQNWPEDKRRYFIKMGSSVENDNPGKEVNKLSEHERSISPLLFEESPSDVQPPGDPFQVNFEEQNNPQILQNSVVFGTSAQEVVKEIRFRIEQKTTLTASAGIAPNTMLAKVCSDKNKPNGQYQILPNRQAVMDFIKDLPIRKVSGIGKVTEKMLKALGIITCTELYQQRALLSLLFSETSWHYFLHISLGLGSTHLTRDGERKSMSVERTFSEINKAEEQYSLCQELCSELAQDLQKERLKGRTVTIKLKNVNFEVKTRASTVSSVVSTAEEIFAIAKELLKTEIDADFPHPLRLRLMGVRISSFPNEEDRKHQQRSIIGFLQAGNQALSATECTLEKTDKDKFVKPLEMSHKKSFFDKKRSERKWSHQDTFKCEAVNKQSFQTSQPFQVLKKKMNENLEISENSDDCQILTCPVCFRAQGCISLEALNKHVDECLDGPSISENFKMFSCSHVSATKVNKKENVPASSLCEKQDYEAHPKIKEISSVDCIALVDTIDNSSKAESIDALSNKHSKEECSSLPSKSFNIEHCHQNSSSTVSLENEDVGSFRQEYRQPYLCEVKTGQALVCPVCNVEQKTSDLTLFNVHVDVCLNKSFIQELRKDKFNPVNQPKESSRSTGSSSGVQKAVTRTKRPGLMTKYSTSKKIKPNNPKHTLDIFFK
How it was run: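 Kinetic fluorescence screen: compound preincubated 15 min RT with 10 nM enzyme; 50 nM substrate (final) initiates; reads at 0/10 min.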
`NCCOB(c1ccccc1)c1ccccc1` was tested, and the Potency was “inactive”.
`CN(C)Cc1cc(O)c(CN(C)C)cc1O` was tested, and the Potency was active: 15.8 µM.
For `O=C1CC(c2ccc(O)c(O)c2)Oc2c1ccc(O)c2O` (stereo unspecified), the Potency was active: 1.78 µM.
For `C/C(=N/Nc1ccc(C(=O)O)cc1)c1ccc2c(c1)Nc1ccccc1S2`, the Potency was inconclusive: 89.1 µM [inhibitor, single point].
For `Cc1ccc(C)c(NC(=O)Cn2cc(S(=O)(=O)Cc3cccc(Cl)c3)c3ccccc32)c1`, the “activity, negative = inhibition” value was inactive: 2.37%.
For `CCN(CC)C(C)CN1c2ccccc2Sc2ccccc21` (stereo unspecified), the Potency was inconclusive: 28.2 µM [inhibitor, partial curve, poor fit].
`O=C(c1ccccc1)c1c2c(cc3sc4ccccc4[n+]13)-c1cccc3cccc-2c13` was tested, and the Potency was inconclusive: 50.1 µM [inhibitor, partial curve].
With `CCCNC(=O)NS(=O)(=O)c1ccc(Cl)cc1` the Potency was “inactive”.
With `CO/N=C(/C(=O)NC1C(=O)N2C(C(=O)O)=C(COC(N)=O)CSC12)c1ccco1` (stereo unspecified) the Potency was active: 35.5 µM.
In the case of `CCCNc1ncc2c(=O)[nH][nH]c(=O)c2n1`, the “activity, negative = inhibition” value is reported as inactive: -3.52%.
For `C=C1CCN(C(CC(C)C)C(=O)NCc2ccc(OC)cc2)S(=O)(=O)c2ccccc21` (stereo unspecified), the “activity, negative = inhibition” value was inactive: -24.6%.
For `COc1cc2ccccc2cc1C(=O)OCC(=O)Nc1ccc(Br)cc1`, the Potency was active: 89.1 µM.
`N=C1S/C(=C\c2ccco2)C(=O)N1c1ccc2c(c1)OCO2` was tested, and the Potency was inconclusive: 89.1 µM [inhibitor, partial curve, poor fit].
`COc1ccccc1CCNC(=O)Cn1ccc2cc(S(=O)(=O)N3CCCC3)ccc21` was tested, and the “activity, negative = inhibition” value was inactive: -12.4%.
In the case of `COc1cc2sc3cc(NCC[C@@H]4CCCN4C)ccc3c(=O)c2cc1OC`, the Potency is reported as inconclusive: 50.1 µM [inhibitor, partial curve, poor fit].
With `Cc1sc2ncnc(NCc3cccs3)c2c1C` the “activity, negative = inhibition” value was inactive: 0.987%.
For `Cc1csc(NC(=O)CSc2nnc(-c3cc(C)on3)o2)n1`, the Potency was inconclusive: 89.1 µM [inhibitor, partial curve, poor fit].
`Cc1cc(C)cc(OCc2cc(=O)n3c(-c4ccccc4)csc3n2)c1` was tested, and the Potency was inconclusive: 100 µM [inhibitor, single point].
`Cc1cccc(NC(=O)CSc2nnc(-c3ccco3)c(-c3ccco3)n2)c1C` was tested, and the Potency was active: 31.6 µM.
With `O=C(/C=C/c1ccco1)c1cccc([N+](=O)[O-])c1` the Potency was inconclusive: 89.1 µM [inhibitor, single point].
With `CN(C)C1(CN=Cc2cc(Cl)cc([N+](=O)[O-])c2O)CCCCC1` the Potency was inconclusive: 89.1 µM [inhibitor, partial curve, poor fit].
With `COc1cccc(NC(=O)CSc2nnc(-c3ccco3)c(-c3ccco3)n2)c1` the Potency was active: 50.1 µM.
With `O=C(O)CC(CCc1ccccc1)OC1OC(CO)C(O)C(O)C1O` (stereo unspecified) the Potency was active: 2 µM.
With `Cc1nnc(SCC2=C(C(=O)O)N3C(=O)C(NC(=O)COc4ccc(F)cc4)C3SC2)s1` (stereo unspecified) the Potency was active: 50.1 µM.
With `Cc1cc(C(=O)N/N=C/c2ccc(-c3ccccc3Cl)o2)n[nH]1` the Potency was inconclusive: 89.1 µM [inhibitor, partial curve, poor fit].
In the case of `Cc1ccc2cccc(NC(=O)C(C)Oc3ccc(Cl)cc3Cl)c2n1` (stereo unspecified), the “activity, negative = inhibition” value is reported as inactive: -0.522%.
For `Cc1cccc(NC(=O)C(Cc2ccccc2)NS(=O)(=O)c2ccc3c(c2)c(=O)n(C)c(=O)n3C)c1` (stereo unspecified), the “activity, negative = inhibition” value was inactive: 0.0317%.
For `CCCCCCn1c(-c2ccco2)nc2oc3cc(OC)ccc3c(=O)c2c1=O`, the Potency was inconclusive: 100 µM [inhibitor, single point].
In the case of `CCCCCCC[n+]1ccc(/C=C/c2c[nH]c3ccccc23)c2ccccc21`, the Potency is reported as active: 31.6 µM.
In the case of `O=C(NCC1CC1)C1CCCN(S(=O)(=O)c2ccc(-n3cnnn3)cc2)C1` (stereo unspecified), the Potency is reported as inconclusive: 100 µM [inhibitor, single point].
In the case of `NC1=NC(c2ccc(Cl)cc2)N(c2ccc(S(N)(=O)=O)cc2)C(N)=N1` (stereo unspecified), the Potency is reported as inconclusive: 89.1 µM [inhibitor, single point].
For `O=C(O)CCc1ccc(-c2ccccc2)n1Cc1ccco1`, the Potency was inconclusive: 89.1 µM [inhibitor, single point].
For `CCCCCn1c(CN2CCN(c3ccc(OC)cc3)CC2)nc2c1c(=O)[nH]c(=O)n2C`, the “activity, negative = inhibition” value was inactive: -2.27%.
For `Cc1ccc(-n2nc(-c3ccco3)cc2C(=O)O)cc1`, the Potency was inconclusive: 50.1 µM [inhibitor, partial curve, poor fit].
With `Cc1nn(C)c2c1c(-c1ccccc1)cc(=O)n2CC(=O)NC(C)c1ccccc1` (stereo unspecified) the Potency was inconclusive: 79.4 µM [inhibitor, single point].
For `Cc1cccc(/C=C(\C(=O)O)c2ccc(S(=O)(=O)N3CCCC3)s2)c1`, the Potency was inconclusive: 89.1 µM [inhibitor, single point].
For `CC1CN(S(=O)(=O)c2cccc(C(=O)OCc3cc(=O)oc4cc(O)ccc34)c2)CC(C)O1` (stereo unspecified), the Potency was inconclusive: 70.8 µM [inhibitor, partial curve, poor fit].
For `COc1cccc2c1C(=O)c1c(O)c3c(c(O)c1C2=O)CC(O)(C(C)=NNC(=O)c1ccc(Cl)c(Cl)c1)CC3OC1CC(N)C(O)C(C)O1` (stereo unspecified), the Potency was active: 17.8 µM.
With `O=C1NC(c2ccc(Br)cc2)Nc2sc3c(c21)CCC3` (stereo unspecified) the Potency was inconclusive: 89.1 µM [inhibitor, partial curve, poor fit].
For `COc1ccc(/C=C2\SC(=S)NC2=O)cc1OS(=O)(=O)c1ccc(NC(C)=O)cc1`, the “activity, negative = inhibition” value was inactive: -15.3%.
In the case of `O=C(Cn1c(=O)oc2cc(S(=O)(=O)NCc3ccccc3)ccc21)Nc1cccc(F)c1`, the Potency is reported as inconclusive: 100 µM [inhibitor, single point].
With `COc1ccccc1C(=O)Oc1cc(N)n(S(=O)(=O)c2ccc(C)cc2)n1` the Potency was inconclusive: 89.1 µM [inhibitor, single point].
With `CCOC(=O)c1[nH]cnc1C(=O)N1CCN(C(=O)OC(C)(C)C)CC1` the “activity, negative = inhibition” value was inactive: -24.9%.
With `Cc1ccccc1Nc1c(-c2c(F)cccc2Cl)nc2ccc(Br)cn12` the “activity, negative = inhibition” value was inactive: -20.5%.
`CCN(c1ccccc1)S(=O)(=O)c1ccc2[nH]cc(C(=O)NCCOC)c(=O)c2c1` was tested, and the “activity, negative = inhibition” value was inactive: -29.5%.
`O=C(NCc1ccco1)c1ccc(COc2ccccc2[N+](=O)[O-])o1` was tested, and the “activity, negative = inhibition” value was inactive: 8.99%.
In the case of `CCn1c(SC(C)C(=O)O)nc2sc3c(c2c1=O)CCC3` (stereo unspecified), the Potency is reported as active: 25.1 µM.
With `Cc1cccc(N2CCN(C(=O)CSc3ccsc3[N+](=O)[O-])CC2C)c1` (stereo unspecified) the Potency was inconclusive: 100 µM [inhibitor, partial curve, poor fit].
With `CC(C)C(=O)Nc1ccc(/C=C2\C=Cc3ccccc32)cc1` the “activity, negative = inhibition” value was inactive: -11.1%.
In the case of `CC(=O)Nc1ccc(/C=C/c2sc3ccccc3[n+]2CCCCI)cc1`, the Potency is reported as active: 44.7 µM.
For `COc1ccccc1CNC(=O)CCc1c(C)c2cc3c(C)c(C)oc3cc2oc1=O`, the Potency was inconclusive: 100 µM [inhibitor, single point].
For `Cc1ccc(/C=C(\C#N)c2nc(-c3ccc(-c4ccccc4)cc3)cs2)cc1`, the Potency was inconclusive: 89.1 µM [inhibitor, single point].
In the case of `CC(C)C(NC(=O)/C(=C\c1ccco1)NC(=O)c1ccco1)C(=O)O` (stereo unspecified), the Potency is reported as inconclusive: 79.4 µM [inhibitor, single point].
`C=CCCN(C1CCCC1)S(=O)(=O)c1ccccc1Br` was tested, and the Potency was inconclusive: 100 µM [inhibitor, single point].
For `COc1ccc(CCNC(=O)CSc2ccsc2[N+](=O)[O-])cc1OC`, the “activity, negative = inhibition” value was inactive: -3.21% [at 60.1 µM].
In the case of `O=C(COC(=O)c1cncc(Br)c1)NCc1ccco1`, the Potency is reported as active: 79.4 µM.
For `N#C/C(=C\c1ccc(O)c(O)c1)C(=O)NCCCCc1ccccc1`, the Potency was inconclusive: 11.2 µM [inhibitor, partial curve].
With `CC(=O)Nc1cccc(NC(=O)CSc2ccc(-c3ccco3)nn2)c1` the Potency was inconclusive: 89.1 µM [inhibitor, single point].
With `COc1ccc(-c2cc(=O)c3c(C)cc(O)cc3o2)cc1` the Potency was inconclusive: 28.2 µM [inhibitor, full curve, poor fit].
With `Cc1oc2cc3oc(=O)c(CC(=O)N[C@H](C(=O)N[C@@H](C(=O)O)c4ccccc4)C(C)C)c(C)c3cc2c1C` the Potency was inconclusive: 56.2 µM [inhibitor, partial curve, poor fit].
`CCOc1ccc(CNC(=O)C2CCN(c3nnc(-n4c(C)ccc4C)s3)CC2)cc1` was tested, and the Potency was inconclusive: 89.1 µM [inhibitor, single point].
With `O=C(C[C@H]1C[C@H](C(=O)N2CCCCC2)[C@@]2(CCc3ccccc3)c3[nH]c4ccc(Cl)cc4c3CCN2C1=O)NCc1cccc(C(F)(F)F)c1` the “activity, negative = inhibition” value was inactive: -7.13%.
With `CCOc1cc(OCC)cc(C(=O)Nc2cccc(-c3nc4ccccc4[nH]3)c2)c1` the Potency was inconclusive: 100 µM [inhibitor, single point].
For `COc1ccc(-c2ccc(Nc3ccc(C(=O)N4CCOCC4)cc3)nn2)cc1OC`, the “activity, negative = inhibition” value was inactive: -42.2%.
`Cc1ccc(NC(=O)COC(=O)/C=C/c2ccc(Br)o2)cc1S(=O)(=O)N(C)C` was tested, and the Potency was inconclusive: 89.1 µM [inhibitor, single point].
In the case of `Cc1ccc2cc([N+](=O)[O-])ccc2n1`, the Potency is reported as inconclusive: 89.1 µM [inhibitor, single point].
With `COc1ccc(CCNC(=O)c2cc3n(n2)CCCN(Cc2ccc(C)cc2)C3=O)cc1OC` the “activity, negative = inhibition” value was inactive: -9.52% [at 60.1 µM].
With `CC(=O)Nc1ccc(C(=O)N/N=C/c2ccncc2)cc1` the “activity, negative = inhibition” value was inactive: 1.79%.
`Clc1nssc1=Nc1ccccc1` was tested, and the “activity, negative = inhibition” value was inactive: 5.73%.
For `CC1(C(=O)NNC(=O)c2ccc(=O)oc2)CC1Br` (stereo unspecified), the Potency was inconclusive: 56.2 µM [inhibitor, partial curve, poor fit].
With `C/C(=N\Nc1ccc(Cl)c(C(=O)O)c1)c1ccc(N2CCOCC2)cc1` the Potency was inconclusive: 100 µM [inhibitor, single point].
